Experimental data reported in patent US20260193317A1, “COMBINATION THERAPY WITH ACTRIIB RECEPTOR VARIANTS AND GLP-1 AGONISTS” (35PHARMA Inc., priority 2023, published 2026).

T1: BMP-10 (UniProt O95393 317-424)
T1 sequence (looked up): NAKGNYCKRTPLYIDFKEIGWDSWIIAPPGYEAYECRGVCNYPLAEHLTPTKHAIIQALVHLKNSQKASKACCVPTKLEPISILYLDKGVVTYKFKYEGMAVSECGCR

T2: activin B (UniProt P09529 293-407)
T2 sequence (looked up): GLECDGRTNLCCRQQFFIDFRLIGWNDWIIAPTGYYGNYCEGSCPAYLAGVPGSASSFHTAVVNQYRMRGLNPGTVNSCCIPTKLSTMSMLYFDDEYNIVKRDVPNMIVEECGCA

T3: BMP-9 (UniProt Q9UK05 320-429)
T3 sequence (looked up): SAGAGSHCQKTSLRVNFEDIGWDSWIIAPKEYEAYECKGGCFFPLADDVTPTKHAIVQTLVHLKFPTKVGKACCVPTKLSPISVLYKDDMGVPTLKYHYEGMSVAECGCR

T4: recombinant human activin A (human, UniProt P08476 311-426)
T4 sequence (looked up): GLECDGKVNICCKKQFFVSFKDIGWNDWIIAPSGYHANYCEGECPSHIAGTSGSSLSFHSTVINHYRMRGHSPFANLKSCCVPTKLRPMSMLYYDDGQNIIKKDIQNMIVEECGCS

T5: BMP-10 (Homo sapiens, UniProt O95393)
T5 sequence (O95393 317-424): T1 sequence (looked up)

T6: BMP-9 (Homo sapiens, UniProt Q9UK05)
T6 sequence (Q9UK05 320-429): T3 sequence (looked up)

T7: activin A (Homo sapiens, UniProt P08476)
T7 sequence (P08476 311-426): T4 sequence (looked up)

T8: activin B (Homo sapiens, UniProt P09529)
T8 sequence (P09529 293-407): T2 sequence (looked up)

B1: P754 (Fc fusion)
chain: ETRECIYYNANWELERTNQSGLERCEGEQDKRLHCYASWRNSSGTIELVKKGCWLDDFNCYDRQECVAQEENPQVYFCCCEGNFCNERFTHLPEAGGPEVTYEPPPTGGGGSGGGGSGG[human IgG1 Fc and a few adjoining residues not spelt out]
B2: P754: hActRIIB T69Q, 14 aa linker, IgG1-DL Fc; SEQ ID 178 (protein)
chain: ETRECIYYNANWELERTNQSGLERCEGEQDKRLHCYASWRNSSGTIELVKKGCWLDDFNCYDRQECVAQEENPQVYFCCCEGNFCNERFTHLPEAGGPEVTYEPPPTGGGGSGGGGSGG[human IgG1 Fc and a few adjoining residues not spelt out]
B3: P1389: hActRIIB G27T, L33W, 19 aa linker, IgG1-DL Fc; SEQ ID 239 (protein)
chain: ETRECIYYNANWELERTNQSGLERCETEQDKRWHCYASWRNSSGTIELVKKGCWLDDFNCYDRQECVATEENPQVYFCCCEGNFCNERFTHLPEAGGPEVTYEPPPTGGGGSGGGGSGGGGSGG[human IgG1 Fc and a few adjoining residues not spelt out]

Key:
GDF-11 [1] = biological target: GDF-11 (UniProt O95390 299-407); assay: cell-based or functional assay
BMP-10 [2] = biological target: T1, BMP-10; assay: cell-based or functional assay
activin B [3] = biological target: T2, activin B; assay: cell-based or functional assay
BMP-9 [4] = biological target: T3, BMP-9; assay: cell-based or functional assay
[5] = biological target: T4, recombinant human activin A; assay: cell-based or functional assay
BMP-10 [6] = biological target: T5, BMP-10; assay: BMP-reporter HepG2 cell-based assay: BMP-10 neutralization; details: BMP-reporter HepG2 cells, BMP-10 40 ng/mL
Description: (§1) Characterization of the BMP-9 and BMP-10 inhibition potency (IC50) of the fusion proteins was performed using a second cell-based reporter assay. Human hepatic HepG2 cells were transfected with a SEAP-encoding plasmid, in which SEAP expression is under the control of the murine Id1 promoter. A stable pool was generated from this transfection. Cells were grown in EMEM, containing 10% heat-inactivated FBS and 200 μg/mL zeocin (hereafter, “HepG2 growth medium”). […] For all assays, cells were seeded in 96-well plates at a confluence of 100,000 cells per well in HepG2 growth medium. Cells were left to attach for 10 minutes at RT prior to being transferred to a 37° C. incubator (5% CO2) overnight. The next day, treatments were prepared in EMEM (2.5% heat-inactivated FBS and with no selection agents) by combining the appropriate concentration of agent with BMP-9 or BMP-10 for 30 min at RT (shaking at 150 rpm). Treatments were conducted in EMEM (2.5% heat-inactivated FBS and with no selection agents), and the final concentration of BMP-9 and BMP-10 was 2 ng/mL and 40 ng/mL, respectively. HepG2 growth medium was removed from the culture plates, and cells were treated with the appropriate mixes of fusion protein and cytokine. Treatment duration was for 20-24 h at 37° C. (5% CO2). All treatments were performed in technical duplicates and at least one or two independent experiments were conducted for each cytokine. At the end of the treatment period, supernatants were transferred to a new plate, and centrifuged at 300 RPM for 3 min. Forty microlitres of supernatant from each condition was transferred to a new plate, onto which 180 μL of Quanti-Blue reagent was added. Quanti-Blue reagent was prepared following the manufacturer's instructions. Samples were incubated for 5-6 h with Quanti-Blue reagent at 37° C. At the end of the incubation, absorbance was read at 650 nm. The data were plotted in GraphPad Prism, which was used to calculate IC50 values as a non-linear regression.

BMP-9 [7] = biological target: T6, BMP-9; assay: BMP-reporter HepG2 cell-based assay: BMP-9 neutralization; details: BMP-reporter HepG2 cells, BMP-9 2 ng/mL
Description: as §1

[8] = SEC-HPLC monomer and HMW content of purified fusion proteins; format: physicochemical; details: after Protein A purification
Source text: Given that protein aggregation can be indicative of reduced conformational stability and decreased activity, Size-Exclusion Chromatography-High Performance Liquid Chromatography (SEC-HPLC) was used to determine the purity of each ActRIIB-ECD construct. This method measured the percentage of intact monomeric species as well as the presence of aggregates and/or degradation products.
All proteins expressed efficiently in CHO and/or 293 cells and purification efficiency of each using Protein A affinity chromatography was similar.

TGFβ superfamily ligands = assay: Neutralization profile across TGFβ superfamily ligands (HEK293 and HepG2 reporter assays, summary); format: cell-based, human
Description: (§2) Potency testing by neutralization on cell-based assays. Characterization of the activin A, activin B, GDF-8, and GDF-11 inhibition potency (IC50) of the fusion proteins was performed using a cell-based reporter assay. TGFβ-reporter HEK293 cells were obtained from InvivoGen (San Diego, CA, cat. no. hkb-tgfb) and were maintained following the manufacturer's instructions. Briefly, cells were grown in high-glucose DMEM, containing 10% heat-inactivated FBS, 30 μg/mL blasticidin, 250 μg/mL hygromycin B, and 100 μg/mL zeocin (hereafter, “growth medium”). Once the cells reached 70-80% confluence, they were detached in growth medium by gently tapping on the flask. For all assays, cells were seeded in 96-well plates at a density of 20,000 cells per well in growth medium. Cells were left to attach for 10 minutes at room temperature (RT) prior to being transferred to a 37° C. incubator (5% CO2) overnight. The next day, treatments were prepared by combining the appropriate concentration of agent with activin A, activin B, GDF-8, or GDF-11 for 30 min at RT (shaking at 150 rpm). Treatments were conducted in high-glucose DMEM (serum-free and with no selection agents), and the final concentration of cytokine (ligand) was 0.3 nM. Growth medium was removed from the culture plates, and cells were treated with the appropriate mixes of fusion protein and cytokine. Treatment duration was for 18-22 h at 37° C. (5% CO2). All treatments were performed in technical duplicates and at least one or two independent experiments were conducted for each cytokine. At the end of the treatment period, supernatants were transferred to a new plate, and centrifuged at 300 RPM for 3 min. Forty microlitres of supernatant from each condition was transferred to a new plate, into which 180 μL of Quanti-Blue reagent (InvivoGen, cat. no. rep-qbs) was added. Quanti-Blue reagent was prepared following the manufacturer's instructions. Samples were incubated for 45 min at 37° C. At the end of the incubation, absorbance was read at 650 nm. The data were plotted in GraphPad Prism, which was used to calculate IC50 values as a non-linear regression.
Characterization of the BMP-9 and BMP-10 inhibition potency (IC50) of the fusion proteins was performed using a second cell-based reporter assay. Human hepatic HepG2 cells were transfected with a SEAP-encoding plasmid, in which SEAP expression is under the control of the murine Id1 promoter. A stable pool was generated from this transfection. Cells were grown in EMEM, containing 10% heat-inactivated FBS and 200 μg/mL zeocin (hereafter, “HepG2 growth medium”). […] For all assays, cells were seeded in 96-well plates at a confluence of 100,000 cells per well in HepG2 growth medium. Cells were left to attach for 10 minutes at RT prior to being transferred to a 37° C. incubator (5% CO2) overnight. The next day, treatments were prepared in EMEM (2.5% heat-inactivated FBS and with no selection agents) by combining the appropriate concentration of agent with BMP-9 or BMP-10 for 30 min at RT (shaking at 150 rpm). Treatments were conducted in EMEM (2.5% heat-inactivated FBS and with no selection agents), and the final concentration of BMP-9 and BMP-10 was 2 ng/mL and 40 ng/mL, respectively. HepG2 growth medium was removed from the culture plates, and cells were treated with the appropriate mixes of fusion protein and cytokine. Treatment duration was for 20-24 h at 37° C. (5% CO2). All treatments were performed in technical duplicates and at least one or two independent experiments were conducted for each cytokine. At the end of the treatment period, supernatants were transferred to a new plate, and centrifuged at 300 RPM for 3 min. Forty microlitres of supernatant from each condition was transferred to a new plate, onto which 180 μL of Quanti-Blue reagent was added. Quanti-Blue reagent was prepared following the manufacturer's instructions. Samples were incubated for 5-6 h with Quanti-Blue reagent at 37° C. […]

activin A [9] = biological target: T7, activin A; assay: TGFβ-reporter HEK293 cell-based assay: activin A neutralization
Description: as §2

activin B [10] = biological target: T8, activin B; assay: TGFβ-reporter HEK293 cell-based assay: activin B neutralization; details: TGFβ-reporter HEK293 cells, ligand 0.3 nM
Description: Potency testing by neutralization on cell-based assays. Characterization of the activin A, activin B, GDF-8, and GDF-11 inhibition potency (IC50) of the fusion proteins was performed using a cell-based reporter assay. TGFβ-reporter HEK293 cells were obtained from InvivoGen (San Diego, CA, cat. no. hkb-tgfb) and were maintained following the manufacturer's instructions. Briefly, cells were grown in high-glucose DMEM, containing 10% heat-inactivated FBS, 30 μg/mL blasticidin, 250 μg/mL hygromycin B, and 100 μg/mL zeocin (hereafter, “growth medium”). Once the cells reached 70-80% confluence, they were detached in growth medium by gently tapping on the flask. For all assays, cells were seeded in 96-well plates at a density of 20,000 cells per well in growth medium. Cells were left to attach for 10 minutes at room temperature (RT) prior to being transferred to a 37° C. incubator (5% CO2) overnight. The next day, treatments were prepared by combining the appropriate concentration of agent with activin A, activin B, GDF-8, or GDF-11 for 30 min at RT (shaking at 150 rpm). Treatments were conducted in high-glucose DMEM (serum-free and with no selection agents), and the final concentration of cytokine (ligand) was 0.3 nM. Growth medium was removed from the culture plates, and cells were treated with the appropriate mixes of fusion protein and cytokine. Treatment duration was for 18-22 h at 37° C. (5% CO2). All treatments were performed in technical duplicates and at least one or two independent experiments were conducted for each cytokine. At the end of the treatment period, supernatants were transferred to a new plate, and centrifuged at 300 RPM for 3 min. Forty microlitres of supernatant from each condition was transferred to a new plate, into which 180 μL of Quanti-Blue reagent (InvivoGen, cat. no. rep-qbs) was added. Quanti-Blue reagent was prepared following the manufacturer's instructions. Samples were incubated for 45 min at 37° C. At the end of the incubation, absorbance was read at 650 nm. […]

GDF-11 [11] = biological target: GDF-11 (Homo sapiens, UniProt O95390); assay: TGFβ-reporter HEK293 cell-based assay: GDF-11 neutralization; details: TGFβ-reporter HEK293 cells, ligand 0.3 nM
Description: as §2

activin A [12] = biological target: T7, activin A; assay: Small-scale activin A ELISA with CHO supernatants; details: 1 μg/mL protein, 30 ng/mL activin A, loss of signal = binding
Outline: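 ActRIIB-ECD-Fc fusions were expressed transiently in CHO cells and harvested after 7 days. Supernatant protein at 1 μg/mL final was premixed with human activin A at 30 ng/mL final and incubated 1 h at RT on an anti-activin A antibody plate. Loss of signal was expressed as % of wild-type ActRIIB-Fc.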

[13] = Single-injection body weight gain in wild-type mice; format: in vivo; details: single 25 mg/kg subcutaneous injection, after 4 days, vs vehicle
Description: To investigate the target engagement of exemplary ActRIIB-ECD polypeptide constructs in vivo, mice (n=6/group) were injected with given agents (25 mg/kg, subcutaneous injection), and sacrificed after 4 days to assess body weight gain.

BMP-9 [14] = biological target: T6, BMP-9; assay: Small-scale BMP-9 ELISA with CHO supernatants; format: binding; details: BMP-9 10 ng/mL

Chain of GDF-11 (O95390 299-407): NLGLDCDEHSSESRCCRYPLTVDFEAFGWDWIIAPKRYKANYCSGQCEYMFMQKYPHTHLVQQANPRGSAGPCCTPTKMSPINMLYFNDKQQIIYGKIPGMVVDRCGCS

Molecule	GDF-11 IC50; TGFβ-reporter HEK293 cells (GDF-11 [1]) [nM]	BMP-10 IC50; BMP-reporter HepG2 cells (BMP-10 [2]) [nM]	Activin B IC50; TGFβ-reporter HEK293 cells (activin B [3]) [nM]	BMP-9 IC50; BMP-reporter HepG2 cells (BMP-9 [4]) [nM]	Activin A IC50; TGFβ-reporter HEK293 cells [5] [nM]	IC50 (BMP-10 [6]) [nM]	IC50 (BMP-9 [7]) [nM]	high molecular weight (HMW) content (SEC-HPLC) [8] [%]	monomer content (SEC-HPLC) [8] [%]	reduced potency on most TGFβ superfamily ligands (activin B, GDF-8, GDF-11, BMP-9, BMP-10) relative to P75 (TGFβ superfamily ligands)	improved potency on activin A relative to P75 (activin A [9])	IC50 (activin A [9]; TGFβ-reporter HEK293 cells, ligand 0.3 nM) [nM]	IC50 (activin B [10]) [nM]	IC50 (GDF-11 [11]) [nM]	activin A binding, ELISA signal relative to P75 (activin A [12])	inhibition of BMP-9 or BMP-10 (TGFβ superfamily ligands)	body weight gain [13]	BMP-9 binding, ELISA signal relative to P75 (BMP-9 [14])
B1	1.6	2.5	2.1	3.5	1.5	–	–	–	–	–	–	–	–	–	–	–	–	–
B2	–	–	–	–	–	2.5	3.5	7	93	~ 2 fold	~ 1.5 fold	1.5	2.1	1.6	–	–	–	–
B3	–	–	–	–	–	–	–	3	97	–	–	–	–	–	potent activin A binding	minimal inhibition of either BMP-9 or BMP-10	apparent body weight gain that did not reach statistical significance	near-undetectable binding to BMP-9
